Measurements: PubChem BioAssay AID463173 (ICCB-Longwood Screening Facility, Harvard Medical School, 2010)
Screen size: about 52,000 compounds; about 1,700 (3.3%) were called active. Rule as the data show it: active = survival mostly below about 52% (no sharp cut-off); inactive = mostly above about 56%. The list shows a part of the results.

What follows are molecules tested on Wild type (assay: growth inhibition of S. aureus wild type versus tarO mutant, primary screen, teichoic acid synthesis inhibitors, RN4220, OD600 (AID 463173)). Settings: S. aureus RN4220 wild type/DeltatarO growth, OD600, 18 h, stronger effect = lower value, screened at 18.75 µg/mL (by protocol).
For COc1ccc(C(=O)CN2C(=O)N(c3cc(C)ccc3C)S(=O)(=O)c3ccccc32)cc1, the survival was inactive: 70%.
In the case of CCc1ccccc1NC(=O)C1CCN(C2=NS(=O)(=O)C(c3ccc(C)c(C)c3)=C2C)CC1, the survival was inactive: 87%.
With CCOC(=O)c1c(C)oc2nc(C)nc(NC(C)c3ccccc3)c12 (stereo not drawn) the survival was inactive: 84%.
CCOC(=O)c1cc2c(ccn2C)n1Cc1c(Cl)cccc1Cl was tested, and the survival was inactive: 101%.
With Cc1cccc(OCC(=O)Nc2ccc3c(c2)nc(CCNC(=O)c2ccco2)n3C)c1 the survival was inactive: 121%.
For Cc1nc2c3ccccc3nc(NNC(=O)CCC(=O)N3CCN(c4ccccc4)CC3)n2n1, the survival was inactive: 81%.
With CC1=C(C(=O)OCc2ccc(C)cc2)C(c2ccccc2Cl)CC(=O)N1 (stereo not drawn) the survival was inactive: 75%.
For COc1ccc(Br)cc1CNC(=O)c1ccc2c(c1)nc1n2CCCCC1, the survival was inactive: 70%.
CCc1ccc(-c2cc3c(N4CCN(c5ccccc5)CC4)nccn3n2)cc1 was tested, and the survival was inactive: 79%.
For COc1cccc(C(=O)n2nc(-c3ccco3)nc2NCc2cccs2)c1, the survival was inactive: 83%.
For Cc1cccc(CN2C(=O)c3ccccc3S(=O)(=O)c3ccc(C(=O)N4CCN(c5cc(C)ccc5C)CC4)cc32)c1, the survival was inactive: 91%.
With COc1ccc(NC(=O)N2CCN(c3cc(-c4noc(C)n4)ccc3C)CC2)c(OC)c1 the survival was inactive: 133%.
With COc1ccc(NS(=O)(=O)c2ccc(NS(=O)(=O)c3ccc4c(c3)OCCO4)cc2)cc1 the survival was inactive: 100%.
For CC(C)(C)C1CCc2c(sc(NC(=O)c3ccncc3)c2C(=O)Nc2ccccc2Cl)C1 (stereo not drawn), the survival was inactive: 84%.
For COc1cccc(N2CCN(Cc3nnc(-c4ccc5c(c4)OCO5)o3)CC2)c1, the survival was inactive: 102%.
In the case of COc1ccc(CNCC(=O)N2CCN(C(=O)CNCc3ccc(OC)cc3)CC2)cc1, the survival was inactive: 98%.
For Cc1cccc(-c2nc3nc(C)cc(N4CCN(c5ccccc5)CC4)n3n2)c1, the survival was inactive: 88%.
With COc1ccc(N2CCN(C(=O)CCn3cnc4onc(-c5ccc(F)cc5)c4c3=O)CC2)cc1 the survival was inactive: 133%.
With COc1ccc(N(CC(=O)NCc2ccc(C)cc2)S(=O)(=O)c2c(C)[nH]c(=O)[nH]c2=O)cc1 the survival was inactive: 137%.
With Cc1cc(C)cc(N2CCn3c2nc2c3c(=O)n(CCc3ccccc3)c(=O)n2C)c1 the survival was inactive: 84%.
In the case of Cc1c(C(=O)NCc2ccccc2Cl)sc2nc3n(c(=O)c12)CCC3, the survival was inactive: 112%.
For Cc1ccc(-c2nc3c4ccccc4n(Cc4cccc(Cl)c4)c(=O)n3n2)cc1, the survival was inactive: 124%.
In the case of CCN1CCN(CCCNC(=O)Cn2nc(C)n3c(cc4cc(C)ccc43)c2=O)CC1, the survival was inactive: 88%.
